Assay results published in PubChem BioAssay AID1347165 (National Center for Advancing Translational Sciences (NCATS), 2019).
Out of some 220,000 compounds screened, about 5,700 (2.6%) were called active. The shares of active, inactive and inconclusive entries below differ from those in the screen. Calls follow the shape of the dose curve; as a rule, active = well fitted inhibition curve with a large enough effect; inconclusive = small, poorly fitted or top-dose-only effect; inactive = no such curve, though single readings can be large or run the other way. A potency beside an inconclusive call is a rough fit, not a confirmed value.

The molecules below were run against Lysine-specific demethylase 5B (Homo sapiens) (UniProt Q9UGL1) (assay: Primary screen for KDM5B Histone Demethylases FDH-coupled qHTS). Conditions: FDH-coupled NADH fluorescence (FDH is formaldehyde dehydrogenase); series mostly up to 57.7 µM.
Summary of the method: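 Compound dilutions met 200 nM (final) KDM5BΔAP for 10 min at room temperature before substrate addition. The substrate mix held 12.5 µM H3K4me3 with cofactors 25 µM α-ketoglutarate and 50 µM Fe²⁺. NADH signal gain over 30 min defined activity.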
Also: nearly all actives have a fitted effect of over 70% in size.
Potency is read from the fitted curve at half-maximal effect; tags tell the direction and shape of the fitted curve.

Chain of UniProt Q9UGL1 (Q9UGL1 whole entry, looked up): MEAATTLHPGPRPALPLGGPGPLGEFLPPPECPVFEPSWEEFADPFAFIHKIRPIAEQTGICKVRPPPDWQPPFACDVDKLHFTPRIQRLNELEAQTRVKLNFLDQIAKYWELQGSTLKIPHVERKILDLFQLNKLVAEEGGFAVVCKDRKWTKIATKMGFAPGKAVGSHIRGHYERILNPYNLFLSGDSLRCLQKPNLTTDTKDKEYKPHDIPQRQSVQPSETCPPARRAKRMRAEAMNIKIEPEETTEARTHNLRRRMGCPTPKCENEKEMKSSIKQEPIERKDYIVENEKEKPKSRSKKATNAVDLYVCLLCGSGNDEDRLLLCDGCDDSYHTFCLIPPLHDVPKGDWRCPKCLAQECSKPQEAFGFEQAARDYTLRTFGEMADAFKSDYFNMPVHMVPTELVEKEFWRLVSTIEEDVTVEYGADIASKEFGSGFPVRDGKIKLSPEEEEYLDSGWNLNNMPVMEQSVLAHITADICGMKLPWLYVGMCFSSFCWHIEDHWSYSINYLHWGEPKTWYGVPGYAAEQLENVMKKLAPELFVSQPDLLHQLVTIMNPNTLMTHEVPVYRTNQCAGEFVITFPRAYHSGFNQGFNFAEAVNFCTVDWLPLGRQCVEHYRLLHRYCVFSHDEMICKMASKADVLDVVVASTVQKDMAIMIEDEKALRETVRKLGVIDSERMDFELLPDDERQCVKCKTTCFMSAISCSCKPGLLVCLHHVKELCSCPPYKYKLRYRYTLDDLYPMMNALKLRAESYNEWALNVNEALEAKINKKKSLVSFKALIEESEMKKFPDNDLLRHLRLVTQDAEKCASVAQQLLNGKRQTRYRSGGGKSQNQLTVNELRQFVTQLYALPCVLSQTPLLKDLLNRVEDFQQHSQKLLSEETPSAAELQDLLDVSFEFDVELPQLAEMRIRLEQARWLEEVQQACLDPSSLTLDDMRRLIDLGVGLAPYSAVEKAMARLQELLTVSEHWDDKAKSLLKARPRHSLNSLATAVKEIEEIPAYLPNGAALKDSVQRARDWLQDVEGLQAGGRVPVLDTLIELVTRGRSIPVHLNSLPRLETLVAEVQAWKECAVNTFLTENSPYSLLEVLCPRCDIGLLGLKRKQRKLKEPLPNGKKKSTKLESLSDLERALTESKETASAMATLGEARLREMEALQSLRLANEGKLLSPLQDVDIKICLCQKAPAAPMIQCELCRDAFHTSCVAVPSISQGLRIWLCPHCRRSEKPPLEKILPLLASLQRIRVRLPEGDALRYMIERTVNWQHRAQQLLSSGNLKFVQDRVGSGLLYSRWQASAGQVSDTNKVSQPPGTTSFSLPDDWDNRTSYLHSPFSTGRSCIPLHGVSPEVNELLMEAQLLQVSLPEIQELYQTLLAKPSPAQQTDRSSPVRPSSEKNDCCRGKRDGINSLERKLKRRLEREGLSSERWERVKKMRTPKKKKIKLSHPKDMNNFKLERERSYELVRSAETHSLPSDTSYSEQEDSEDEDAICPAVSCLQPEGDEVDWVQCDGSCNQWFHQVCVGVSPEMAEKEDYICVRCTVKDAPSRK

Compound | Potency
O=C(Cc1c[nH]c2ccccc12)N1CCN(CC(=O)N2CCCC2)CC1 | inactive
Cc1ccc2c(n1)N(C)[C@H](CO)CCN(C1CCCC1)C2 | inconclusive: 31.6 µM [inhibitor, partial curve, poor fit]
Cc1cccc(-n2c(O)c(/C=N/NC(=O)c3ccncc3)c(=O)[nH]c2=O)c1 | inconclusive: 4.47 µM [inhibitor, full curve, poor fit]
CCCN1CC[C@@H](CO)N(C)c2nc(C)ccc2C1 | inconclusive: 35.5 µM [inhibitor, partial curve, poor fit]
CC(Nc1ccc([N+](=O)[O-])c2nonc12)c1ccc(Cl)cc1 (stereo not given) | inconclusive: 3.55 µM [inhibitor, full curve, poor fit]
CC/C(=N\NC(=O)Nc1ccccc1)c1c(O)n(Cc2ccccc2)c(=O)[nH]c1=O | inconclusive: 28.2 µM [inhibitor, partial curve, poor fit]
O=C(C1CCCCC1)N1C[C@@H]2C[C@H](C1)c1c(-c3cncnc3)ccc(=O)n1C2 | inactive
O=C1CS(=O)(=O)C2(CCNCC2)N1c1ccccc1 | inactive
COc1ccc2[nH]cc(CCNCc3ccc(OC)c(OC)c3)c2c1 | inactive
Cc1ccc2[nH]cc(CCN)c2c1 | inactive
COc1ccc(CN2CCC3(CC(c4cccnc4)=NO3)C2)cc1 (stereo not given) | inconclusive: 56.2 µM [inhibitor, partial curve]
CN(C(=O)CN1CC=C(c2ccccc2)CC1)C1CCS(=O)(=O)C1 (stereo not given) | inconclusive: 31.6 µM [inhibitor, single point]
C/C(=C\c1cn(C)c2ccccc12)[N+](=O)[O-] | inconclusive: 39.8 µM [inhibitor, single point]
COc1ccc(CNCCc2c[nH]c3ccccc23)cc1 | inconclusive: 14.1 µM [inhibitor, partial curve, poor fit]
Clc1ccc(N2CCN(CC3[C@H]4CNC[C@@H]34)CC2)nc1 (stereo not given in full) | inconclusive: 15.8 µM [inhibitor, partial curve, poor fit]
CCN1CCCC12Cc1ccccc1CN(C(=O)Cc1ccccc1)C2 (stereo not given) | inactive
Cc1nc(-c2ccccc2Br)cc([C@H]2CN3CC[C@H]2C[C@@H]3CNC(=O)Nc2ccc(Cl)cc2)n1 | inactive
COc1cc2c(cc1Oc1cccc(N(C)C)c1)NC(=O)C21CCN(c2cnccn2)CC1 | inconclusive: 14.1 µM [inhibitor, partial curve, poor fit]
CNc1oc(-c2ccc(C)cc2)nc1P(=O)(OC)OC | inconclusive: 25.1 µM [inhibitor, partial curve, poor fit]
COc1ccc(-c2cc([C@H]3CN4CC[C@H]3C[C@@H]4CNC(=O)N3CCOCC3)nc(C)n2)cc1OC | active: 22.4 µM
O=C(O)c1ccc(N=Cc2c(O)[nH]c(=O)[nH]c2=O)cc1 | inconclusive: 39.8 µM [inhibitor, single point]
C#C[C@H]1CN2CC[C@H]1C[C@@H]2COC(=O)Nc1ccc(OC(F)(F)F)cc1 | inactive
C=C[C@H]1CN2CC[C@H]1C[C@@H]2CNS(=O)(=O)c1cccc(C#N)c1 | inactive
COc1cccc(-n2c(/C=C/c3ccccc3O)nc3ccccc3c2=O)c1 | inconclusive: 25.1 µM [inhibitor, partial curve, poor fit]
C#CCN(C)C[C@H]1CN2CC[C@H]1C[C@@H]2CNC(=O)NC(C)C | inactive

Compound | Potency
O=C(O)C1=NOC2CN(Cc3cccnc3)CC12 (stereo not given) | active: 39.8 µM
COc1ccccc1C1=NCC(=O)N(CC(=O)Nc2ccccc2)c2sc3c(c21)CCCC3 | inactive
Cc1ccc2c(c1)C(Cc1nc3ccccc3c(=O)n1-c1ccc(Cl)cc1)C(=O)N2 (stereo not given) | inactive
Cc1cc(CN2CCC3CC(=O)NCCC3C2)cc(C)n1 (stereo not given) | inconclusive: 100 µM [inhibitor, partial curve, poor fit]
CN1CCN(C(=O)Cc2ccc(Cl)cc2Cl)CC1 | inactive
Cc1nc(-c2ccc(N(C)C)cc2)cc([C@H]2CN3CC[C@H]2C[C@@H]3CNC(=O)c2ccco2)n1 | active: 25.1 µM
Cc1cc(C)c2c(CCN)c(C)[nH]c2c1 | inconclusive: 25.1 µM [inhibitor, partial curve, poor fit]
COCC1CN(Cc2ccsc2)CC12CCNCC2 (stereo not given) | inconclusive: 20 µM [inhibitor, partial curve]
O=C(c1ccc(F)cc1)N1C[C@@H]2C[C@H](C1)c1ccc(C3CCCCC3)c(=O)n1C2 | active: 31.6 µM
Cc1ccccc1-n1nc(C)c2c1NC(=O)CSC2c1ccc(N(C)C)cc1 (stereo not given) | inconclusive: 31.6 µM [inhibitor, partial curve, poor fit]
CN1CC2(CCN(c3nccc(N)n3)CC2)CC1C(=O)O (stereo not given) | inconclusive: 5.01 µM [inhibitor, full curve]
CC[C@H]1CN2CC[C@H]1C[C@@H]2CNC(=S)Nc1ccc(N(C)C)cc1 | inactive
O=C(Cc1ccc(F)cc1F)N1CCN(Cc2ccccc2)CC(O)C1 (stereo not given) | inconclusive: 28.2 µM [inhibitor, partial curve, poor fit]
Nc1nc(N2CC3CCC(C2)N3CC(F)(F)F)c2[nH]cnc2n1 | inactive
COc1cc2c(cc1OCc1ccccc1)N(C(=O)CC1CC1)CC21CCN(C)CC1 | inconclusive: 28.2 µM [inhibitor, partial curve]
CCc1c(C)nc(N2CCN(CC)CC2)[nH]c1=O | inactive
CN1C(=O)[C@H]2CN(Cc3ccc(Br)s3)C[C@H]2C1=O | inactive
c1ccc2c(CC3CN4CCCC4CN3)c[nH]c2c1 (stereo not given) | inconclusive: 25.1 µM [inhibitor, full curve, poor fit]
N#Cc1cc2c(cc1-c1ccc3c(c1)OCCO3)OCCO2 | inconclusive: 28.2 µM [inhibitor, partial curve, poor fit]
O=C(CCl)NCNC(=O)CCl | inactive
COc1ccc(CC(=O)N2CC3(CCN(C)CC3)c3cc(OC)c(OCc4ccccc4)cc32)cc1 | inactive
COc1cccc([C@H]2CN(C(=O)c3cnc(C)cn3)[C@@H]3C4CCN(CC4)[C@H]23)c1 | inactive
Cc1noc(C)c1COc1ccc(CC(=O)N2CCN(CC(=O)N3CCCCC3)CC2)cc1 | inactive
O=C1OCC2(CCN(Cc3ccccn3)C2)N1c1ccncc1 (stereo not given) | inconclusive: 31.6 µM [inhibitor, partial curve]
CC(OC(=O)c1cn(C)c2ccccc12)C(=O)Nc1ccc(C(N)=O)cc1 (stereo not given) | inactive

Compound | Potency
CCOc1ccccc1NC(=O)c1cn(C)c2ccccc12 | inactive
Cc1nc(-c2cccs2)cc([C@H]2CN3CC[C@H]2C[C@@H]3CO)n1 | active: 35.5 µM
COc1cc2c(cc1Oc1ccccc1)NC(=O)C21CCN(c2nccs2)CC1 | inactive
CC(=O)c1cccc(NC(=O)NC[C@H]2C[C@@H]3CCN2C[C@@H]3c2cc(-c3cccs3)nc(C)n2)c1 | inactive
CCc1cnc(N2CCC3(CC2)C(=O)Nc2cc(OCc4ccccc4)c(OC)cc23)nc1 | inconclusive: 28.2 µM [inhibitor, single point]
COc1ccc(NC(=O)N2[C@H]3CC[C@@H]2c2cncnc2C3)c(OC)c1 | inactive
OC(CN(Cc1ccccc1)Cc1ccccc1)c1ccc2cc[nH]c2c1 (stereo not given) | inactive
CN(CCc1ccccn1)C[C@H]1CN2CC[C@H]1C[C@@H]2CNC(=O)c1ccc2c(c1)OCO2 | inactive
O=C(Nc1ccc2n(c1=O)C[C@H]1C[C@@H]2CN(CC2CCCCC2)C1)C1CCCCC1 | inconclusive: 35.5 µM [inhibitor, partial curve, poor fit]
Cc1cc(OC(=O)N(C)C)nc2c1c(C)nn2C | inconclusive: 22.4 µM [inhibitor, single point]
COc1ccc2[nH]c(C)c(CCNCc3ccc(C(F)(F)F)cc3)c2c1 | inconclusive: 11.2 µM [inhibitor, partial curve, poor fit]
Cc1ccc(CN2CC[C@H]3CC[C@@H](C2)N3)s1 | inactive
Cc1cccc(CN2C[C@@H]3C[C@H]2C(=O)N(C)c2ccccc2O3)n1 | inconclusive: 31.6 µM [inhibitor, partial curve, poor fit]
C=C[C@H]1CN2CC[C@H]1C[C@@H]2CNC(=O)c1ccc2ccccc2c1 | inactive
Cc1cc(C)nc(SC(Cl)(Cl)Cl)n1 | inconclusive: 39.8 µM [inhibitor, single point]
Cc1cccn2c(CC(=O)N3CCN(C)[C@@H]4CS(=O)(=O)C[C@@H]43)cnc12 | active: 28.2 µM
CC(C)NC(=O)OC[C@H]1C[C@@H]2CCN1C[C@@H]2c1cc(-c2ccc(F)cc2)nn1C | inactive
Cc1ccccc1-c1ccc2n(c1=O)C[C@H]1C[C@@H]2CN(C(=O)Nc2ccccc2)C1 | inconclusive: 39.8 µM [inhibitor, partial curve, poor fit]
Cc1cnc(N2CC3CCC(C2)N3CC(F)(F)F)c([N+](=O)[O-])c1 | inactive
CN1Cc2ccccc2-n2ccnc2C12CCN(C(=O)Cc1ccc(Cl)cc1)CC2 | inactive
FC(F)(F)CN1C2CCC1CN(c1ncnc3sc(Cl)nc13)C2 | inactive
COc1ccc(-c2cc([C@H]3CN4CC[C@H]3C[C@@H]4CNC(=O)CSCC(=O)O)nc(C)n2)cc1OC | active: 31.6 µM
COc1cc2c(cc1Oc1ccccc1)NC(=O)C21CCN(c2ncccn2)CC1 | inconclusive: 35.5 µM [inhibitor, single point]
COc1ccc(-n2cc(C3=CCN(CCN4CCOCC4)CC3)cn2)cc1 | inactive
COc1ccc2c(C)c(CC(=O)N3CCN(CCc4ccccn4)CC3)c(=O)oc2c1 | inconclusive: 28.2 µM [inhibitor, partial curve, poor fit]
